{"source": "PubChem BioAssay (NCI)", "note": "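Results reflect a 48-hour exposure of cells in 96-well plates to compound at five concentrations. Here, GI50 denotes the concentration required for 50% inhibition of growth. At the TGI there is no net growth.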"}
{"system": "NCI-H322M lung", "test": "DTP human tumour cell line panel, 48 h", "units": {"TGI": "µM", "GI50": "µM"}}
{"smiles": "CC1(C)CCC2(C(=O)OC3OC(CO)C(O)C(O)C3O)CCC3(C)C(=CCC4C5(C)CCC(OC6OC(CO)C(O)C(O)C6O)C(C)(C)C5CCC43C)C2C1", "note": "(centres undefined)", "TGI": "> 25"}
{"smiles": "COC1O[C@@H]2CCN3C(=O)[C@@H](OC(=O)c4ccc([N+](=O)[O-])cc4)[C@H]1C23", "note": "(some centres undefined)", "TGI": "> 100"}
{"smiles": "O=CN1CCN(C(=O)c2cc(Cl)cc(Cl)c2)C1=S", "TGI": 35.3}
{"smiles": "O=C(NC1CCC(=O)N1C(=O)OCc1ccccc1)OCc1ccccc1", "note": "(centres undefined)", "TGI": "> 100"}
{"smiles": "Cc1oc2c(C)c(O)c3c(c2c1C1(C)OCCO1)C(=O)C=C(Cl)C3=O", "TGI": "> 100"}
{"smiles": "O=S(=O)(N=S(c1ccc(Cl)cc1)c1ccc(Cl)cc1)c1ccccc1", "TGI": "> 100"}
{"smiles": "CCCCOC(=O)C1CN2C=CC=NC2=NC1(C(F)(F)F)C(F)(F)F", "note": "(centres undefined)", "TGI": "> 100"}
{"smiles": "O=c1c2ccccc2nc(-c2ccc(Br)cc2)n1NC1OC(CO)C(O)C(O)C1O", "note": "(centres undefined)", "TGI": "> 100"}
{"smiles": "Cc1cc(C)c(O)c(Cc2cccc(Cc3cc(C)cc(C)c3O)c2O)c1", "TGI": "> 100"}
{"smiles": "CCC(C)C1NC(=O)C2CCCN2C(=O)C(CC2CO2)OC(=O)CCNC(=O)C(C)N(C)C(=O)C(C(C)C)N(C)C1=O", "note": "(centres undefined)", "TGI": "> 100"}
{"smiles": "NCC#CCNCCCN1CC1", "TGI": "> 100"}
{"smiles": "CC#CS(=O)(=O)c1ccccc1", "TGI": 34.9}
{"smiles": "COC(=O)N/N=C(/CCN1CCCC1)CC(c1ccccc1)c1c(O)c2ccccc2oc1=O", "note": "(centres undefined)", "TGI": "> 100"}
{"smiles": "Cc1cc(O)c(C(c2cccnc2)c2c(O)cc(C)[nH]c2=O)c(=O)[nH]1", "TGI": "> 100"}
{"smiles": "COc1ccc(N=c2ssc(C(=S)Nc3ccc(OC)cc3)c2S)cc1", "TGI": "> 100"}
{"smiles": "CN(C)CCCN(c1nc(C(Cl)(Cl)Cl)ns1)c1nc(C(Cl)(Cl)Cl)ns1", "GI50": 6.47, "TGI": 22.4}
{"smiles": "N=C(N)c1ccc(-c2ccc(-c3ccc(Cl)cc3)o2)o1", "GI50": 1.67, "TGI": 3.23}
{"smiles": "CCOC(=O)C(Cc1ccccc1)NC(=O)c1ccc(N=NN(C)C)cc1", "note": "(centres undefined)", "TGI": "> 100"}
{"smiles": "CC(C)[Si](OC1=C(C(=O)Nc2ccccc2Cl)CCCCC1)(C(C)C)C(C)C", "TGI": "> 100"}
{"smiles": "CC(=O)OCC1OC(n2c(C)c(N=Nc3ccccc3)c(C)c(C#N)c2=S)C(OC(C)=O)C(OC(C)=O)C1OC(C)=O", "note": "(centres undefined)", "TGI": "> 100"}
{"smiles": "Cc1ccc(S(=O)(=O)/N=c2\\ssc(Nc3ccccc3)c2Cl)cc1", "GI50": 0.005, "TGI": 12.1}
{"smiles": "COc1cc2nc(Sc3c([N+](=O)[O-])ncn3C)[nH]c2cc1OC", "TGI": "> 100"}
{"smiles": "Nc1nc(Nc2ccccc2)sc1C(=O)c1ccc(Cl)cc1", "TGI": "> 100"}
{"smiles": "S=c1nc2[nH]ncc2c(N/N=C/c2ccccc2)[nH]1", "GI50": "> 100", "TGI": "> 100"}
{"smiles": "COC(=O)/C(C#N)=C1\\CCC(O)N1C", "note": "(centres undefined)", "TGI": "> 100"}
{"smiles": "O=C1c2cccnc2S(=O)N1Cc1ccccc1", "note": "(centres undefined)", "TGI": "> 100"}
{"smiles": "O=C1OCC2(CO1)CC1C=CC2C1", "note": "(centres undefined)", "TGI": "> 100"}
{"smiles": "COc1ccc(NC(=O)C(=O)C2CNC(=O)NC2=O)c(OC)c1", "note": "(centres undefined)", "TGI": "> 100"}
{"smiles": "COc1[nH]c(C(Cl)(Cl)Cl)c(Cl)c(=O)c1Cl", "TGI": "> 100"}
{"smiles": "NC1=C(Cl)C(=O)c2ccc(S(N)(=O)=O)cc2C1=O", "GI50": 1.87, "TGI": 3.33}
{"smiles": "Cc1cccc(N=Nc2c(C)nn(C(=O)CC(=O)Nc3ccccc3)c2C)c1", "TGI": "> 100"}
{"smiles": "CC1(C)CC[C@]2(C(=O)O)CC[C@]3(C)C(=CC[C@@H]4[C@@]5(C)C[C@H](O)[C@H](O)[C@@](C)(CO)C5=CC[C@]43C)[C@@H]2C1", "TGI": "> 100"}
{"smiles": "COc1cc(-c2cc(=O)c3ccccc3o2)ccc1N", "TGI": "> 100"}
{"smiles": "Cc1ccc2c(=O)cc(-c3cccc4ccccc34)[nH]c2n1", "TGI": "> 100"}
{"smiles": "CCCCCCCC/C=C/CCCCCCCC1=NC(C)(C)CN1C(C)C", "GI50": 1.46, "TGI": 2.77}
{"smiles": "O=C(/C=C\\c1cccc2ccccc12)c1cccs1", "TGI": 28.7}
{"smiles": "CCc1ccccc1NC(=O)CCc1n[nH]c(=S)o1", "TGI": "> 100"}
{"smiles": "c1cc(OCCN2CCCCCC2)ccc1CNc1ccc2nc(CCC3CCCCC3)[nH]c2c1", "GI50": 2.62, "TGI": 7.82}
{"smiles": "C=CCNC(=S)N1c2ccccc2NC(=O)CC1C", "note": "(centres undefined)", "TGI": "> 100"}
{"smiles": "Cn1c(=O)c2c(no[n+]2[O-])n(C)c1=O", "TGI": "> 100"}
{"smiles": "Cn1ncc2c(/N=C/c3cccs3)[nH]c(=S)nc21", "GI50": 37.2, "TGI": "> 81.4"}
{"smiles": "C/C(=N\\NC(=O)c1cccnc1)c1cccc(/C(C)=N/NC(=O)c2cccnc2)n1", "TGI": "> 100"}
{"smiles": "O=c1[nH]c(-c2cccc(F)c2)nc2ccccc12", "TGI": "> 69.5"}
{"smiles": "C#CCN=C(N/N=C/c1ccc([N+](=O)[O-])o1)NS(=O)(=O)c1cc(C)c(Cl)cc1SCC(N)=O", "GI50": 26.9, "TGI": 64.8}
{"smiles": "Nc1ccc2c(c1)C(=O)N(O)C2=O", "TGI": "> 100"}
{"smiles": "COC1C=CC(C(=O)[N+]2=Cc3[nH]c4ccccc4c3CC2)O1", "note": "(centres undefined)", "TGI": "> 100"}
{"smiles": "COc1ccc(N(CC(=O)NCCC[Te]c2ccccc2)C(=O)CCSC2=C(C)C(=O)c3ccccc3C2=O)cc1", "GI50": 2.34, "TGI": 7.98}
{"smiles": "O=C(O)c1ccc(O)c(N=Nc2cc(S(=O)(=O)O)c3ccccc3c2O)c1", "TGI": "> 100"}
{"smiles": "COC(=O)CCC(NC(=O)C(C)NC(=O)COC1C(O)C(OC(=O)CCNc2c3ccccc3nc3cccc([N+](=O)[O-])c23)OC(OCc2ccccc2)C1NC(C)=O)C(N)=O", "note": "(centres undefined)", "TGI": "> 10"}
{"smiles": "CCCN1CN(C(C(=O)N[C@@H]2C(=O)N3C2SC(C)(C)C3C(=O)O)c2ccccc2)CSC1=S", "note": "(some centres undefined)", "TGI": "> 100"}
{"smiles": "ClC1CCC2OOC1O2", "note": "(centres undefined)", "TGI": "> 100"}
{"smiles": "CN1C2CCC1C(C(O)c1ccccc1[N+](=O)[O-])C(=O)C2", "note": "(centres undefined)", "TGI": "> 100"}
{"smiles": "COC(=O)C[C@@H]1C(C)(C)[C@@H]2O[C@@]34C[C@@H]2C(=O)[C@]1(C)[C@H]3CC[C@@]1(C)[C@H](c2ccoc2)OC(=O)C[C@]14O", "TGI": "> 100"}
{"smiles": "O=C(O)C1NCCc2c1[nH]c1ccccc21", "note": "(centres undefined)", "TGI": "> 100"}
